# Reference: the supplement of paper PMC8728848
# The list shows a part of the results.
# B1: CLEC-1 (Homo sapiens), Q9NZH3 (protein)
# chain: MQAKYSSTRDMLDDDGDTTMSLHSQASATTRHPEPRRTEHRAPSSTWRPVALTLLTLCLVLLIGLAAWGLLFFQYYQLSNTGQDTISQMEERLGNTSQELQSLQVQNIKLAGSLQHVAEKLCRELYNKAGAHRCSPCTEQWKWHGDNCYQFYKDSKSWEDCKYFCLSENSTMLKINKQEDLEFAASQSYSEFFYSYWTGLLRPDSGKAWLWMDGTPFTSELFHIIIDVTSPRSRDCVAILNGMIFSKDCKELKRCVCERRAGMVKPESLHVPPETLGEGD
# Experiments:
# Experiment in all cases: glycan array binding signal (z-score within array); higher = stronger binding
# Conditions in all cases: glycan notation: IUPAC condensed, linker removed
# [1] = target: Gal(a1-3)Gal(b1-4)[Fuc(a1-3)]GlcNAc(b1-2)Man(a1-3)[Gal(a1-3)Gal(b1-4)[Fuc(a1-3)]GlcNAc(b1-2)Man(a1-6)]Man(b1-4)GlcNAc(b1-4)GlcNAc
# Outline: (§1)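 Glycan array data were curated from 3228 arrays in the Consortium for Functional Glycomics database and kept only where the protein sequence was available. Glycan names were converted to IUPAC-condensed notation, and columns mapping to the same glycan were averaged. The binding signal is a within-array Z-score, averaged across arrays of the same protein sequence at different concentrations or buffers and across linkers. Negative Z-scores can be read as non-binding.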
# [2] = target: Gal(a1-3)GalNAc
# Outline: as §1
# [3] = target: Gal(a1-3)[Gal(a1-4)]Gal(b1-4)GlcNAc
# Outline: as §1
# [4] = target: Gal(a1-4)Gal(b1-3)GlcNAc(b1-2)Man(a1-3)[Gal(a1-4)Gal(b1-3)GlcNAc(b1-2)Man(a1-6)]Man(b1-4)GlcNAc(b1-4)GlcNAc
# Outline: as §1
# [5] = target: Gal(a1-4)Gal(b1-4)Glc
# Outline: as §1
# [6] = target: Gal(a1-4)Gal(b1-4)GlcNAc
# Outline: as §1
# [7] = target: Gal(a1-4)Gal(b1-4)GlcNAc(b1-2)Man(a1-3)[Gal(a1-4)Gal(b1-4)GlcNAc(b1-2)Man(a1-6)]Man(b1-4)GlcNAc(b1-4)GlcNAc
# Outline: as §1
# [8] = target: Gal(a1-4)Gal(b1-4)GlcNAc(b1-3)Gal(b1-4)Glc
# Outline: as §1
# [9] = target: Gal(a1-4)GlcNAc
# Outline: as §1
# [10] = target: Gal(a1-6)Glc
# Outline: as §1
# [11] = target: Gal(b1-2)Gal
# Outline: as §1
# [12] = target: Gal(b1-3)Gal
# Outline: as §1
# [13] = target: Gal(b1-3)Gal(b1-4)GlcNAc
# Outline: as §1
# [14] = target: Gal(b1-3)Gal(b1-4)GlcNAc(b1-2)Man(a1-3)[Gal(b1-3)Gal(b1-4)GlcNAc(b1-2)Man(a1-6)]Man(b1-4)GlcNAc(b1-4)GlcNAc
# Outline: as §1
# [15] = target: Gal(b1-3)GalNAc
# Outline: as §1
# [16] = target: Gal(b1-3)GalNAc(a1-3)[Fuc(a1-2)]Gal(b1-4)Glc
# Outline: as §1
# [17] = target: Gal(b1-3)GalNAc(a1-3)[Fuc(a1-2)]Gal(b1-4)GlcNAc
# Outline: as §1
# [18] = target: Gal(b1-3)GalNAc(b1-3)Gal(a1-4)Gal(b1-4)Glc
# Outline: as §1
# [19] = target: Gal(b1-3)GalNAc(b1-4)Gal(b1-4)Glc
# Outline: as §1
# [20] = target: Gal(b1-3)GalNAc(b1-4)[Neu5Ac(a2-3)]Gal(b1-4)Glc
# Outline: as §1
# [21] = target: Gal(b1-3)GlcNAc
# Outline: as §1
# [22] = target: Gal(b1-3)GlcNAc(a1-6)Gal(b1-4)GlcNAc
# Outline: as §1
# [23] = target: Gal(b1-3)GlcNAc(b1-2)Man(a1-3)[Gal(b1-3)GlcNAc(b1-2)Man(a1-6)]Man(b1-4)GlcNAc(b1-4)GlcNAc
# Outline: as §1
# [24] = target: Gal(b1-3)GlcNAc(b1-2)Man(a1-3)[Gal(b1-3)GlcNAc(b1-2)Man(a1-6)]Man(b1-4)GlcNAc(b1-4)[Fuc(a1-6)]GlcNAc
# Outline: as §1
# [25] = target: Gal(b1-3)GlcNAc(b1-3)Gal(b1-3)GlcNAc
# Outline: as §1
# [26] = target: Gal(b1-3)GlcNAc(b1-3)Gal(b1-4)Glc
# Outline: as §1
# [27] = target: Gal(b1-3)GlcNAc(b1-3)Gal(b1-4)GlcNAc
# Outline: as §1
# [28] = target: Gal(b1-3)GlcNAc(b1-3)Gal(b1-4)GlcNAc(b1-6)[Gal(b1-3)GlcNAc(b1-3)]Gal(b1-4)Glc
# Outline: as §1
# [29] = target: Gal(b1-3)GlcNAc(b1-3)Gal(b1-4)[Fuc(a1-3)]GlcNAc(b1-6)[Gal(b1-3)GlcNAc(b1-3)]Gal(b1-4)Glc
# Outline: as §1
# [30] = target: Gal(b1-3)GlcNAc(b1-3)GalNAc
# Outline: as §1
# [31] = target: Gal(b1-3)GlcNAc(b1-6)Gal(b1-4)GlcNAc
# Outline: as §1
# [32] = target: Gal(b1-3)[Fuc(a1-4)]GlcNAc
# Outline: as §1
# [33] = target: Gal(b1-3)[Fuc(a1-4)]GlcNAc(b1-2)Man(a1-3)[Gal(b1-3)[Fuc(a1-4)]GlcNAc(b1-2)Man(a1-6)]Man(b1-4)GlcNAc(b1-4)GlcNAc
# Outline: as §1
# [34] = target: Gal(b1-3)[Fuc(a1-4)]GlcNAc(b1-2)Man(a1-3)[Gal(b1-3)[Fuc(a1-4)]GlcNAc(b1-2)Man(a1-6)]Man(b1-4)GlcNAc(b1-4)[Fuc(a1-6)]GlcNAc
# Outline: as §1
# [35] = target: Gal(b1-3)[Fuc(a1-4)]GlcNAc(b1-3)Gal(b1-3)[Fuc(a1-4)]GlcNAc
# Outline: as §1
# [36] = target: Gal(b1-3)[Fuc(a1-4)]GlcNAc(b1-3)Gal(b1-4)GlcNAc
# Outline: as §1
# [37] = target: Gal(b1-3)[Fuc(a1-4)]GlcNAc(b1-3)Gal(b1-4)[Fuc(a1-3)]GlcNAc
# Outline: as §1
binder,measurement,setting,value
B1,glycan array binding signal (z-score),[1],-0.162
same,glycan array binding signal (z-score),[2],0.025
same,glycan array binding signal (z-score),[3],-0.278
same,glycan array binding signal (z-score),[4],0.449
same,glycan array binding signal (z-score),[5],-0.591
same,glycan array binding signal (z-score),[6],-0.187
same,glycan array binding signal (z-score),[7],5.92
same,glycan array binding signal (z-score),[8],-0.372
same,glycan array binding signal (z-score),[9],-0.035
same,glycan array binding signal (z-score),[10],0.261
same,glycan array binding signal (z-score),[11],-0.482
same,glycan array binding signal (z-score),[12],-0.166
same,glycan array binding signal (z-score),[13],-0.338
same,glycan array binding signal (z-score),[14],-0.326
same,glycan array binding signal (z-score),[15],0.068
same,glycan array binding signal (z-score),[16],-0.299
same,glycan array binding signal (z-score),[17],-0.405
same,glycan array binding signal (z-score),[18],0.409
same,glycan array binding signal (z-score),[19],-0.087
same,glycan array binding signal (z-score),[20],-0.053
same,glycan array binding signal (z-score),[21],-0.265
same,glycan array binding signal (z-score),[22],-0.543
same,glycan array binding signal (z-score),[23],0.001
same,glycan array binding signal (z-score),[24],-0.187
same,glycan array binding signal (z-score),[25],-0.027
same,glycan array binding signal (z-score),[26],0.149
same,glycan array binding signal (z-score),[27],-0.215
same,glycan array binding signal (z-score),[28],0.137
same,glycan array binding signal (z-score),[29],-0.376
same,glycan array binding signal (z-score),[30],-0.361
same,glycan array binding signal (z-score),[31],1.24
same,glycan array binding signal (z-score),[32],-0.247
same,glycan array binding signal (z-score),[33],0.409
same,glycan array binding signal (z-score),[34],0.488
same,glycan array binding signal (z-score),[35],-0.604
same,glycan array binding signal (z-score),[36],-0.068
same,glycan array binding signal (z-score),[37],-0.182
